T1: muCD98hc ECD Avi-His (mouse, UniProt P10852 100-526)
T1 construct: biotinylated on the Avi tag where captured on streptavidin; also called Mouse CD98-AVI-His; Mouse CD98hc-AVI-His
T1 sequence: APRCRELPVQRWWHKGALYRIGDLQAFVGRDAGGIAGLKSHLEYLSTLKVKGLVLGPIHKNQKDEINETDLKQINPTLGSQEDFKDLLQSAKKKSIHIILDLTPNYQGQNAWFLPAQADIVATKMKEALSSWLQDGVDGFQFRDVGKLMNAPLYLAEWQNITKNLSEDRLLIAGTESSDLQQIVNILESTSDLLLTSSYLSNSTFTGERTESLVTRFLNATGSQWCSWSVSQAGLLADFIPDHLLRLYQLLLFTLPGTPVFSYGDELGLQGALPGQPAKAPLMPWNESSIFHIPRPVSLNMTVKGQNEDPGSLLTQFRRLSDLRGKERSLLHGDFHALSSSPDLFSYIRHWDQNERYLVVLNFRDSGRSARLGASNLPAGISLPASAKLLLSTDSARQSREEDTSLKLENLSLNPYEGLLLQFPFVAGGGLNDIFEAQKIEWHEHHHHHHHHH

T2: Full length mouse CD98hc on CHO cells (mouse, UniProt P10852 1-526)
T2 construct: CHO cells stably overexpressing it; also called CHO-mouse CD98hc; CHO-mCD98hc
T2 sequence: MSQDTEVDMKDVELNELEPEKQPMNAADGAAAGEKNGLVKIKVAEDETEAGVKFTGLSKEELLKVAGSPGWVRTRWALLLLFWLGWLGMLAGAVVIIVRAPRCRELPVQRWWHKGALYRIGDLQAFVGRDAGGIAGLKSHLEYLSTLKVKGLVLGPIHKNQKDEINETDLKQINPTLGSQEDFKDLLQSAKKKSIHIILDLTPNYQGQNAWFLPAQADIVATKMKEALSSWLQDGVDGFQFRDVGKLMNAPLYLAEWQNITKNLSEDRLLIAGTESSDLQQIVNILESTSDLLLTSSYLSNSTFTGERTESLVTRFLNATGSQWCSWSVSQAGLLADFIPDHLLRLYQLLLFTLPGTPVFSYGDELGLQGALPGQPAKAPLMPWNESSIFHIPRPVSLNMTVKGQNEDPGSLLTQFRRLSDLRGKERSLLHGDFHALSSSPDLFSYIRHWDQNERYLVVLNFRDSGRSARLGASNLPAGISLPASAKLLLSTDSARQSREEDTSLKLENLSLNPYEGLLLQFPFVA

T3: Full length human CD98hc on CHO cells (human)
T3 construct: CHO cells stably overexpressing it; also called CHO-human CD98hc; CHO-huCD98hc
T3 chain: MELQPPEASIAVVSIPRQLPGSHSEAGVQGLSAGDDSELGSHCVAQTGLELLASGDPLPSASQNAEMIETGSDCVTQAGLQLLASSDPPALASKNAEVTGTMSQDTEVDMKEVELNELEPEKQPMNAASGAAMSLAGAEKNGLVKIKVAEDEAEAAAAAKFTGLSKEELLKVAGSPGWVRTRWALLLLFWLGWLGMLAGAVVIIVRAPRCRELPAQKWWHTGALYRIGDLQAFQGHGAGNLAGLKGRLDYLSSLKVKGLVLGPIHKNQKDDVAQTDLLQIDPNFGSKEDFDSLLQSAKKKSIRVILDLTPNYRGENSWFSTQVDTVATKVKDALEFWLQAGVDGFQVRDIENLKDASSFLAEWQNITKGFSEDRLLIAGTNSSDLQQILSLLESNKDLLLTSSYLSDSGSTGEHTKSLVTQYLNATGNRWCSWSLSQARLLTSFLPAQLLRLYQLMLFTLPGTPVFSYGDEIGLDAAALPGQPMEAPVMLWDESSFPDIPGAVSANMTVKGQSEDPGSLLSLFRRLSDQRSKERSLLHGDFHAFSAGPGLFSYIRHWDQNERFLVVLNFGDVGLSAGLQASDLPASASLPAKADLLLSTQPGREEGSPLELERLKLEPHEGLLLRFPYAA

B1: CD98hc.04.054 (2+1 bispecific antibody) (bispecific antibody)
heavy 1: EVRLLESGGGLVQPGGSLRLSCAASGFTFSNYAMGWVRQAPGKGLEWVSAISGSGGSTYYADSVKGRFTTSRDDSKNALYLQMNSLRAEDTAVYYCARGGPGWYAADVWGQGTTVTVSSASTKGPSVFPLAPSSKSTSGGTAALGCLVKDYFPEPVTVSWNSGALTSGVHTFPAVLQSSGLYSLSSVVTVPSSSLGTQTYICNVNHKPSNTKVDKKV[here human IgG1 Fc with changes without letters]GGGGSGGGGSGGGGSQVQLQQSAAELARPGASVKMSCETSGYTFTRYTMNWVKQRPGQGLDWIGYINPSSGYAEYNQKFRGKTTLTADKSSSTAYIQLNSLTSEDSAVYYCVRYDGNYVYWGQGTTLTVSSGGSEGKSSGSGSESKSTGGSDIVMTQSQKFMSTSFGDRVDITCKASQNVGSAVAWYQQKPGQSPKLLIYSASNRYTGVPDRFTGSGSGTDFTLTINNMQSADLADYFCQQYNFYPLTFGAGTKLDLK
heavy 2: EVRLLESGGGLVQPGGSLRLSCAASGFTFSNYAMGWVRQAPGKGLEWVSAISGSGGSTYYADSVKGRFTTSRDDSKNALYLQMNSLRAEDTAVYYCARGGPGWYAADVWGQGTTVTVSS[here human IgG1 constant region with changes without letters]
light: DIQMTQSPSSLSASVGDRVTITCRASQSISSYLNWYQQKPGKAPKLLIYAASSLQSGVPSRFSGSGSGTDFTLTISSLQPEDFATYYCQQADLPAFAFGGGTKVEIKRTVAAPSVFIFPPSDEQLKSGTASVVCLLNNFYPREAKVQWKVDNALQSGNSQESVTEQDSKDSTYSLSSTLTLSKADYEKHKVYACEVTHQGLSSPVTKSFNRGEC
B2: CD98hc.04.064 (2+1 bispecific antibody) (bispecific antibody)
heavy 1: EVRLLESGGGLVQPGGSLRLSCAASGFTFSNYAMGWVRQAPGKGLEWVSAISGSGGSTYYADSVKGRFTTSRDDSKNALYLQMNSLRAEDTAVYYCARGGPGWYAADVWGQGTTVTVSSASTKGPSVFPLAPSSKSTSGGTAALGCLVKDYFPEPVTVSWNSGALTSGVHTFPAVLQSSGLYSLSSVVTVPSSSLGTQTYICNVNHKPSNTKVDKKV[here human IgG1 Fc with changes without letters]GGGGSGGGGSGGGGSQVQLQQPGAELVRPGASVKLSCKASGYTFTSYWMNWVRQRPGQGLEWIGLIDPSDSETHYNQMFKDRATLTVDKSSSTAYMQLSSLTSADPAVYYCARASYGKGYFDYWGQGTTLTVSSGGSEGKSSGSGSESKSTGGSDIVMTQSPSSLAMSVGQKVTMSCKSSQSLLNNINQKNYLAWYQQKPGQSPKLLVYFASTRESGVPDRFIGSGSGTDFTLTINTVQAEDLADYFCQQHYSSPFTFGGGTKLEIK
heavy 2: EVRLLESGGGLVQPGGSLRLSCAASGFTFSNYAMGWVRQAPGKGLEWVSAISGSGGSTYYADSVKGRFTTSRDDSKNALYLQMNSLRAEDTAVYYCARGGPGWYAADVWGQGTTVTVSS[here human IgG1 constant region with changes without letters]
light: B1 light
notes: also called mouse CD98hc.04.064
B3: CD98hc.04.063 (2+1 bispecific antibody) (bispecific antibody)
heavy 1: EVRLLESGGGLVQPGGSLRLSCAASGFTFSNYAMGWVRQAPGKGLEWVSAISGSGGSTYYADSVKGRFTTSRDDSKNALYLQMNSLRAEDTAVYYCARGGPGWYAADVWGQGTTVTVSSASTKGPSVFPLAPSSKSTSGGTAALGCLVKDYFPEPVTVSWNSGALTSGVHTFPAVLQSSGLYSLSSVVTVPSSSLGTQTYICNVNHKPSNTKVDKKV[here human IgG1 Fc with changes without letters]GGGGSGGGGSGGGGSEVKLEESGGGLVQPGGSMILSCVASGFTFSNSWMNWVRQSPEKGLEWVAEIRLRSNNYATHYAESVKGRFTISRDDSKSTVYLQMNNLRAEDTGIYYCSRGDPGAYWGQGTLVTVSAGGSEGKSSGSGSESKSTGGSDIQMTQSSSYLSVSLGNRVTITCKASDHIKNWLAWFQQKPGNAPRLLISGATILETGVPSRFSGSGSGKDYTLSITSLQTEDVATYYCQQYWSTPYTFGGGTKLEIK
heavy 2: EVRLLESGGGLVQPGGSLRLSCAASGFTFSNYAMGWVRQAPGKGLEWVSAISGSGGSTYYADSVKGRFTTSRDDSKNALYLQMNSLRAEDTAVYYCARGGPGWYAADVWGQGTTVTVSS[here human IgG1 constant region with changes without letters]
light: B1 light

The target of one assay is T1, muCD98hc ECD Avi-His. Nature of the assay: ELISA, 1 ug/ml.
Take B1: the “ELISA fold-change relative to isotype hIgG” value is 1.4.

Take B2: the “ELISA fold-change relative to isotype hIgG” value came to 1.1.

As to B3, the “ELISA fold-change relative to isotype hIgG” value was 1.2.

The next assay has as its target T4, Human TfR-AVI-His (control) (human, UniProt P02786).
T4 construct: control protein; also called Avi-His-tagged human TfR; human transferrin receptor
T4 sequence (P02786 89-760 limits assumed): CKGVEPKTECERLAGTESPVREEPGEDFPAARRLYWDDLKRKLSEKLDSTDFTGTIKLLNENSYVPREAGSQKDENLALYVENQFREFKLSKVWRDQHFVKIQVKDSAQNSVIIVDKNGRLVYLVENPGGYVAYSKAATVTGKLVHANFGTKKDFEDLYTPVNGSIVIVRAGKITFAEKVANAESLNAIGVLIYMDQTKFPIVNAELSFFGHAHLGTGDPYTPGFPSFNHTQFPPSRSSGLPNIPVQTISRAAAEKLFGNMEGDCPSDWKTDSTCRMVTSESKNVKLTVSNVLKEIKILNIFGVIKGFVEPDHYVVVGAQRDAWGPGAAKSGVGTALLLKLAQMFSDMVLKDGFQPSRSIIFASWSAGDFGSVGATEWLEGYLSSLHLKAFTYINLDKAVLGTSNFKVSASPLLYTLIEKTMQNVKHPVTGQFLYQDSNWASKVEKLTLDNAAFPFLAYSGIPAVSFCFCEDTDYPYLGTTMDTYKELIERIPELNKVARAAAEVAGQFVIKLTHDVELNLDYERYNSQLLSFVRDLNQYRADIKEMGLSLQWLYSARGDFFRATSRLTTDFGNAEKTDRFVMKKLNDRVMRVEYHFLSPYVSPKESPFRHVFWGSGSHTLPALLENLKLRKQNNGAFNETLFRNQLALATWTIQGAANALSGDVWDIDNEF
The experiment in a line: ELISA, 1 ug/ml.
Consider B1, for which the “ELISA fold-change relative to isotype hIgG” value worked out at 1.2.

With B2, the “ELISA fold-change relative to isotype hIgG” value was 1.1.

In the case of B3, the “ELISA fold-change relative to isotype hIgG” value stood at 1.1.

Another assay has as its target T2, Full length mouse CD98hc on CHO cells. Nature of the assay: FACS, 5 ug/ml.
Take B1: the “MFI fold-change relative to isotype hIgG1” value worked out at 1.8.

Consider B2, for which the “MFI fold-change relative to isotype hIgG1” value was found to be 0.4.

For B3, the “MFI fold-change relative to isotype hIgG1” value came out at 1.

The target in the next assay is T3, Full length human CD98hc on CHO cells. The experiment in a line: FACS, 5 ug/ml.
Turning to B1, the “MFI fold-change relative to isotype hIgG1” value is 30.6.

Turning to B2, the “MFI fold-change relative to isotype hIgG1” value came to 29.5.

Consider B3, for which the “MFI fold-change relative to isotype hIgG1” value came out at 6.1.

The values above are taken from patent US20250270341A1 (Alector, published 2025).
